This note sets out measurements from publication PMC8665361.

Amino acid sequences for entries named in this document (tags omitted).
UniProt Q9WVH3: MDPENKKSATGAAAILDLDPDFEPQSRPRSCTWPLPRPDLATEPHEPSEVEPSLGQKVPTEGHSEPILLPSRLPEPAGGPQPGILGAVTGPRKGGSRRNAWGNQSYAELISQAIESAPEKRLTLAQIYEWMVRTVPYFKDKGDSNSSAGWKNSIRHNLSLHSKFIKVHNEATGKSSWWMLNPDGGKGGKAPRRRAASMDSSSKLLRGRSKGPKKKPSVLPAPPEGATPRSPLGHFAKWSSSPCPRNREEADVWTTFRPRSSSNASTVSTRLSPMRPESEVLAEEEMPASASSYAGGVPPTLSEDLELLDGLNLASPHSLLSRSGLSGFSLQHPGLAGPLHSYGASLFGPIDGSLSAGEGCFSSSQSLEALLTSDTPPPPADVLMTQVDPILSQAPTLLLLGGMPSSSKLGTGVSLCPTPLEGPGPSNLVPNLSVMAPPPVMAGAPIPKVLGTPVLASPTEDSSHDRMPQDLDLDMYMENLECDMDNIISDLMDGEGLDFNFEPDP
UniProt P98177: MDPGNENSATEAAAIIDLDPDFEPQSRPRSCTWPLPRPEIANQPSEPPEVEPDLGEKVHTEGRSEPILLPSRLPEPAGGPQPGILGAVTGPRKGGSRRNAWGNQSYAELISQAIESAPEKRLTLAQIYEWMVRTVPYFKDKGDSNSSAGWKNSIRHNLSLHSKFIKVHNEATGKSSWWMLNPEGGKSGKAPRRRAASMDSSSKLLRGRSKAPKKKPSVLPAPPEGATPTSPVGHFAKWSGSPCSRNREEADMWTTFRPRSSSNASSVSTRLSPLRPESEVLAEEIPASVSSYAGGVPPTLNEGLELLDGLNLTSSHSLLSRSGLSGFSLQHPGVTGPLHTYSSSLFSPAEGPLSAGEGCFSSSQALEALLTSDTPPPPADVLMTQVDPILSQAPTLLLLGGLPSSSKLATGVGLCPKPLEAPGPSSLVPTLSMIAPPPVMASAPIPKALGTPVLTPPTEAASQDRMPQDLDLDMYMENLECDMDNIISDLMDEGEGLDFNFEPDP

No constants are given. Whether binding was seen depends on the method and setting. In cells and extracts the contact can be indirect. Some entries that bind do so weakly or less than the wild type. For some assays here: Where a sequence is shown, tags or fusion partners need not be part of it.

The target in test [1] is T1, endogenous FBXO7 (HEK293 cells) (human (endogenous in HEK293)) (UniProt Q9Y3I1).
T1 sequence: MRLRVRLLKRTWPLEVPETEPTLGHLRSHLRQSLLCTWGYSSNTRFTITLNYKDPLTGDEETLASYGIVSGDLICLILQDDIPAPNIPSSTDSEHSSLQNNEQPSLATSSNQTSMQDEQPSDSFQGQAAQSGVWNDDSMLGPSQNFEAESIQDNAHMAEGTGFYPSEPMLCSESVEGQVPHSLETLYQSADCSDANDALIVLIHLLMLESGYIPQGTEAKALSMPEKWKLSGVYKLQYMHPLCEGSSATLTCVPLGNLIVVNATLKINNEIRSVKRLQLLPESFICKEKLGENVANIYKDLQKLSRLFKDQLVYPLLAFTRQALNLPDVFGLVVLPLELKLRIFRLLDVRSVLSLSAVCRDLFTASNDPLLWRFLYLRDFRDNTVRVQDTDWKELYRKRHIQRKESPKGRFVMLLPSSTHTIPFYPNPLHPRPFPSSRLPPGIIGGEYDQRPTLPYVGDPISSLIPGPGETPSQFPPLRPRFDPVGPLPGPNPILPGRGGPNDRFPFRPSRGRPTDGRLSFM
The experiment in a line: co-IP; HEK293 cells transfected 24 h with FLAG- or HA-tagged catalytically inactive caspases; endogenous FBXO7; text: IP with anti-FLAG or anti-HA and blot with anti-FBXO7; legend: IP with anti-FBXO7.

Test [2] has as its target endogenous FOXO4 (mouse MN9D cells and whole mouse brain) (mouse (endogenous in MN9D cells and mouse brain)) (UniProt Q9WVH3). The test can be described thus: co-IP; endogenous proteins, mouse neuroblastoma MN9D cell lysate; IP with anti-FOXO4 IgG, blot with indicated antibodies.
The target is the same in test [3]. The experiment in a line: co-IP; endogenous proteins, whole mouse brain lysate (50 mM Tris pH 7.4, 150 mM NaCl, 1% Triton X-100, 0.5% sodium deoxycholate, 0.1% SDS); IP with anti-FOXO4 IgG.
Test [4] deals with endogenous FOXO4 (HEK293 cells) (human (endogenous in HEK293)) (UniProt P98177). The experiment in a line: co-IP; HEK293 cells transfected with FLAG-FBXO7 wild type or a deletion mutant; IP with anti-FOXO4 antibody (endogenous FOXO4); Fig. S1B.

B1: HA-caspase 10-C401A (enzyme, UniProt Q92851 1-521)
chain: MKSQGQHWYSSSDKNCKVSFREKLLIIDSNLGVQDVENLKFLCIGLVPNKKLEKSSSASDVFEHLLAEDLLSEEDPFFLAELLYIIRQKKLLQHLNCTKEEVERLLPTRQRVSLFRNLLYELSEGIDSENLKDMIFLLKDSLPKTEMTSLSFLAFLEKQGKIDEDNLTCLEDLCKTVVPKLLRNIEKYKREKAIQIVTPPVDKEAESYQGEEELVSQTDVKTFLEALPQESWQNKHAGSNGNRATNGAPSLVSRGMQGASANTLNSETSTKRAAVYRMNRNHRGLCVIVNNHSFTSLKDRQGTHKDAEILSHVFQWLGFTVHIHNNVTKVEMEMVLQKQKCNPAHADGDCFVFCILTHGRFGAVYSSDEALIPIREIMSHFTALQCPRLAEKPKLFFIQAAQGEEIQPSVSIEADALNPEQAPTSLQDSIPAEADFLLGLATVPGYVSFRHVEEGSWYIQSLCNHLKKLVPRMLKFLEKTMEIRGRKRTVWGAKQISATSLPTAISAQTPRPPMRRWSSVS
As for B1, the binding entry in test [1] is on record as “no binding”.

B2: endogenous FBXO7 (mouse MN9D cells and whole mouse brain) (protein, UniProt Q3U7U3 1-523)
chain: MKLRVRLQKRTQPLEVPESEPTLGQLRAHLSQVLLPTLGFSSDTRFAITLNNKDALTGDEETLASYGIVSGDLICLVLEDDMPAPNLPSSTDTEHSSLQDNDQPSLAATPSQTNIPDEQGTDSSQGQATPFDAWTDDSMEGPSQNVEAESIQDAMSMEEVSGFHPLEPMLCNETEDGQVPHSLETLYQSAGCSNISDALIVLVHLLMLESGYIPQGTETKAVTMPEKWKSSGVYKLQYTHPLCEGGFAVLTCVPLGNLIIINATIKVNGGIKNVKSVQLQPGSYVAAGVEPGESAAKVYKDLKKLSRLFKDQLVYPLLAFTRQVLNLPDVFGLVVLPLELKLRIFRLLDVHSVLALSAVCHDLLIASNDPLLWRCLYLRDFRDGTVRGPDTDWKELYRKKHIQRKEAQRMRHAMFLPSAHPIPFCPIPVYPRAYLPTSLLPPGIIGGEYDERPILPSVGDPVTSLIPRPGELPGQFRPLRPRFDPVDPLPGPHSLLPGRAIPNNRFPFRPGRGRSADSRLPFL
On to B2, for which the binding entry in test [2] and in test [3] was “binds” in each case.

B3: FLAG-tagged FBXO7 deletion mutant lacking the N-terminal region of amino acid 1-333 (domain or fragment, UniProt Q9Y3I1 334-522)
chain: VLPLELKLRIFRLLDVRSVLSLSAVCRDLFTASNDPLLWRFLYLRDFRDNTVRVQDTDWKELYRKRHIQRKESPKGRFVMLLPSSTHTIPFYPNPLHPRPFPSSRLPPGIIGGEYDQRPTLPYVGDPISSLIPGPGETPSQFPPLRPRFDPVGPLPGPNPILPGRGGPNDRFPFRPSRGRPTDGRLSFM
For the molecule B3, the binding entry in test [4] is reported as “no binding”.

B4: FLAG-tagged FBXO7 deletion mutant lacking the C-terminal region spanning amino acids 376-522 (domain or fragment, UniProt Q9Y3I1 1-375)
chain: MRLRVRLLKRTWPLEVPETEPTLGHLRSHLRQSLLCTWGYSSNTRFTITLNYKDPLTGDEETLASYGIVSGDLICLILQDDIPAPNIPSSTDSEHSSLQNNEQPSLATSSNQTSMQDEQPSDSFQGQAAQSGVWNDDSMLGPSQNFEAESIQDNAHMAEGTGFYPSEPMLCSESVEGQVPHSLETLYQSADCSDANDALIVLIHLLMLESGYIPQGTEAKALSMPEKWKLSGVYKLQYMHPLCEGSSATLTCVPLGNLIVVNATLKINNEIRSVKRLQLLPESFICKEKLGENVANIYKDLQKLSRLFKDQLVYPLLAFTRQALNLPDVFGLVVLPLELKLRIFRLLDVRSVLSLSAVCRDLFTASNDPLLWRFL
Consider B4, for which, in test [4], the binding result was “binds”.
